Test results from PubChem BioAssay AID1508624 (National Center for Advancing Translational Sciences (NCATS), 2021).
Out of some 48,000 compounds screened, about 120 (0.25%) were called active. Another 4% or so got no clear call; they are omitted. The call rests on the fitted dose curve; in most records, active means well fitted activation curve with a large enough effect; inconclusive means small, poorly fitted or top-dose-only effect, or another doubt; inactive means no such curve, though single readings can be large or run the other way. Some of the results follow.

Test: Primary qHTS for Identification of Small Molecule Activators of Huntingtin-Antisense Promoter Activity; further: nearly all actives have a fitted effect of over 55% in size
Conditions: HEK293 HTT-AS promoter firefly luciferase reporter, 24 h; series mostly up to 57.5 µM; activity change, positive = activation: at the top concentration
Summary of the method: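 Firefly luciferase signal from promoter-reporter HEK293 cells was scaled between vehicle (0%) and zero RLU (-100%). Compounds were tested at final concentrations of up to 57.5 uM over 24 h at 37 degrees C. PTC124 at 50 uM final served as control inhibitor.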

Activity change, positive = activation, inactive:
COc1ccc(CNC(=O)Cn2c(=O)cc(C)c3c(C)nn(-c4cccc(Cl)c4C)c32)cc1 4.63%, Cc1cccc(CSCc2ccc(C(=O)NCCc3ccccc3)o2)c1 -6.27%, COc1ccccc1CCNC(=O)Cc1c(C)c2cc3c(C)coc3cc2oc1=O 0.786%, O=C(c1cc2ccccc2oc1=O)N1CCN(c2ccc(F)cc2)CC1 -5.82%, Cc1cc(C)c2c(CC(=O)Nc3ccc(S(=O)(=O)N4CCCCC4)cc3)coc2c1 -15.6%, CCN(CC)CCN(C(=O)c1ccco1)c1nc2cc(C)cc(C)c2s1 -13.7%, CCOc1cc(-c2ccc(OC(=O)c3ccc(C)cc3)c(OC)c2)cc(=O)c2c(C)oc(C)c12 -37.1%, Nc1c(-c2nc(-c3ccccc3)no2)nnn1CC(=O)Nc1cccc(F)c1 7.75%, CC(=O)c1ccc(NC(=O)CN(C)S(=O)(=O)c2cc3c(cc2Cl)NC(=O)CO3)cc1 -18.4%, CCCN(CCC)S(=O)(=O)c1ccc(C(=O)Nc2cccc(-c3nc4ccccc4[nH]3)c2)cc1 -47.9%, CCOC(=O)c1ccc(Nc2c(-c3cccc(O)c3)nc3nc[nH]n23)cc1 -49.9%, N#Cc1c(-n2ncnc2-c2ccccc2C(F)(F)F)sc2c1CCCCC2 -53%, Cc1ccc(NCc2cccn2-c2nnc(N3CCC(C(=O)NCCC(C)C)CC3)s2)cc1 -45.3%, CCc1ccc(NC(=O)Nc2nnc(N(C)C3CCCCC3)s2)cc1 -1.8%, O=C(Nc1cccc(C(F)(F)F)c1)c1ccc2snnc2c1 -13.8%, CC(=O)c1ccc(NC(=O)Cn2c(=O)nc(-c3ccccc3)c3cc(Cl)ccc32)cc1 -4.67%, Cc1cccc(N2CCN(C(=O)C3CCN(c4ncnc5c4nc4n5CCCCC4)CC3)CC2)c1C -34.4%, CCOC(=O)C1CCCN(c2ncnc3c2nnn3C)C1 (stereo not drawn) -8.44%, COc1cccc(NC(=O)c2oc3ccccc3c2NC(=O)c2cc3ccccc3o2)c1 -9.99%, COCCn1c(SCC(=O)c2c[nH]c3ccccc23)nc2cc(C(=O)NC(C)C)ccc2c1=O -19.6%, COCCCNC(=O)c1ccc(C)c(-n2c(C)nc3cccnc32)c1 -1.22%, Cc1nc2ccn(Cc3cccnc3)c(=O)c2cc1C(=O)Nc1ccc(F)cc1F -0.41%, O=S(=O)(Nc1ccc(F)cc1F)c1ccc(-n2cccn2)cc1 -31.1%, CCOc1ccc(-c2nnc(SCC(=O)c3ccc(Br)cc3)n2-c2ccccc2)cc1 0.771%, CCOc1ccc(CCNC(=O)c2cc3c(s2)-c2c(C)cccc2OC3)cc1 -8.48%, O=C(CN1C(=O)CCc2cc(S(=O)(=O)N3CCOCC3)ccc21)NCc1ccc(Cl)cc1 -17.4%, COc1cc(NC(=O)NCCN2CCN(c3ccccc3)CC2)cc(OC)c1OC -7.08%, COc1ccc(C(=O)NCCn2cc(SC(C)c3ccccc3)c3ccccc32)cc1OC (stereo not drawn) -51.4%, Cc1ccc(N(C)C(=O)CCS(=O)(=O)c2cc3c(cc2Cl)NC(=O)CO3)cc1 -12.2%, Cc1cccc(NC(=O)CSc2nc3c(sc4ccccc43)c(=O)n2CCCC(=O)NC2CCCC2)c1 -2.01%, Cc1cccc(C(=O)Nc2ccc(S(=O)(=O)N(Cc3ccccc3)c3ccccc3)cc2)c1 20.4% [at 11.5 µM, percent change from vehicle, -100% = no light], C[C@@H]1CC=CC=CC=CC=C[C@@H](O[C@@H]2O[C@H](C)[C@@H](O)[C@H](N)[C@H]2O)C[C@@H]2O[C@](O)(C[C@@H](O)C[C@@H]3O[C@@H]3C=CC(=O)O1)C[C@H](O)[C@@H]2C(=O)O -93.7%, Cc1ccc(C2=NC(c3ccccc3)=Nc3ccc(Cl)cc3N2)cc1 26.6%, O=C1[C@H](Cc2ccc(O)cc2)N2C(=O)CCN(C(=O)NCc3ccccc3)[C@H]2CN1Cc1cccc2ccccc12 -40.4%, COC(=O)c1cc2oc3ccccc3c2n1Cc1c(C)cc(C)cc1C -13.4%, COCCCNC(=O)CSc1nc(-c2ccc(OC)c(OC)c2)[nH]c1-c1ccc(F)cc1 -15.5%, Cc1cc(C)c2c(=O)cc(C(=O)NCc3ccc(S(N)(=O)=O)cc3)oc2c1 -0.251%, CCc1ccc(NC(=O)CCc2nnc3n(C)c(=O)c4sccc4n23)cc1 -10%, Cc1cc(C)cc(NC(=O)Cn2c(=O)n(Cc3ccco3)c(=O)c3oc4ccccc4c32)c1 -20.7%, Cc1nn2c(=O)cc(COC(=O)COc3ccc(F)cc3)nc2s1 2.55%, COc1cc2ccccc2cc1C(=O)Nc1cccc(-c2nc3cc(C)ccc3o2)c1C -9.69%, Cc1cccc(NC(=O)C2CCCN(S(=O)(=O)c3ccc(Br)s3)C2)c1 (stereo not drawn) -10.9%, Cc1nc2cccnc2n1-c1cccc(C(=O)NCCc2ccc(S(N)(=O)=O)cc2)c1 -4.44%, Cc1ccc(NC(=O)CSc2nnc(-c3ccc(Br)cc3)o2)c(C)c1 -4.27%, Cc1ccc(OCC(=O)Nc2ccc3nc(SCCOc4ccccc4)sc3c2)cc1 -15.7%, CCOC(=O)Cn1c(=O)oc2cc(S(=O)(=O)N3CCC(C(=O)OCC)CC3)ccc21 -21.4%, COc1ccc(NC(=O)Cn2nnc3sc4c(c3c2=O)CCCC4)cc1 -18.4%, Cc1ccc(NC(=O)CN2C(=O)COc3ccc(S(=O)(=O)Nc4ccccc4)cc32)c(C)c1 -8.76%, COc1ccc(CNC(=O)c2ccc3nc(C(C)C)oc3c2)cc1OC -34.7%, Cc1cc(C)c(NC(=O)CSc2nc3ccncc3[nH]2)c(C)c1 -23.5%, CCOC(=O)c1oc2ccc(S(=O)(=O)n3nc(-c4ccc(C)cc4)cc3N)cc2c1C -14.6%, COc1ccc(NC(=O)C2CCN(S(=O)(=O)c3cccc(-c4noc(C)n4)c3)CC2)cc1OC -26.9%, CCOCCn1ccc2c(OCC(=O)Nc3ccc(C(N)=O)cc3)cccc2c1=O -24.8%, COc1cccc2sc(N(Cc3cccnc3)C(=O)c3ccc4c(c3)OCCO4)nc12 -14%, COc1ccc(C2NC(=O)N(C)C3=C2C(=O)N(c2ccc(Br)cc2)C3)cc1 (stereo not drawn) -18.8%, CCCc1nn2c(=O)cc(COC(=O)c3ccc(NC(=O)COc4ccc(F)cc4)cc3)nc2s1 -14.4%, CN(C)c1ccc(CNC(=O)C2CCN(c3nc4ccccc4[nH]3)CC2)cc1 -17.7%, Cc1cc(S(=O)(=O)N2CCN(Cc3noc(CCC(=O)N4CCCCC4)n3)CC2)ccc1F -12.8%
